We go through 19 variants from the RNAGym collection of RNA variant scans (doi:10.1073/pnas.2313332121).

First the molecules themselves.
B1: TPR 5TU (parent)
chain: GGAUCUUCUCGAUCUAACAAAAAAGACAAAUCUGCCACAAAGCUUGAGAGCAUCUUCGGAUGCAGAGGCGGCAGCCUUCGGUGGCGCGAUAGCGCCAACGUUCUCAACUAUGACACGCAAAACGCGUGCUCCGUUGAAUGGAGUUUAUCAUG

This sample is rich in variants without activity.

The variants in the data set derive from B1. Description: polymerase ribozyme fitness, log enrichment relative to wild type (log ratio); higher = more active; in vitro selection for triplet polymerase activity. In short, it runs like this:
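Fitness measures genotype enrichment against wild-type enrichment on a logarithmic scale, with inverse-variance-weighted averaging of replicates. The logarithm is base 2, and genotypes were kept only with ≥10 input reads and ≥1 read per output in Illumina sequencing. The sequenced libraries came from one triplicate in vitro selection round, including frozen incubation at −7 °C, of PCR-built, transcribed mutant libraries of each subunit of a heterodimeric triplet polymerase ribozyme.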
Take GGAUCUUCUCGAUGUAACAAAAAAGACAAAUCUGCCACAAAGCAUGAGAGCAUCUUCGGGUGCAGAGGCGGCAUCCUUCGGUGACGCGAUAGCGCCUACGUUCUCAACUAUGACACGCAAAACGCGUGCUCAGUUGAAUGGAGUUUAUCAUG: the “polymerase ribozyme fitness (log ratio)” value is at most -4.2. In the case of GGAUCUUCUCGAUGUAACAAAAAAGACAAAUCUGCCACAAAGCUUGAGAGCAUCUUCGGAUGCAGAGGAGGCAGCCUUCGGUGGCGCGAUAGCGCCAACGUUCUCAACUAUGACACGCAAAACGCGUGCUCCGUUGAAUGGAGUUUAUCAUG, the “polymerase ribozyme fitness (log ratio)” value was at most -4.2. As to GGAUCUUCUCGAUGUAACAAAAAAGACAAAUCUGCCACAAAGCUUGAGAGCAUCUUCGGAUGCAGAGGCGGCAGCCUUCGGUGGCGCGAUAGAGCCAACGUUCUCAACUAUGACACGCAAAACGCGUGCUCCGUUGAAUGGAGUUUAUCAUG, the “polymerase ribozyme fitness (log ratio)” value is -3.68. GGAUCUUCUCGAUGUAACAAAAAAGACAAAUCUGCCACAAAGCUUGAGAGCAUCUUCGGAUGCAGAGGCGGCAGCCUUCGGUGGCGCGAUAGGGCCAACGUUCUCAACUAUGACACGCAAAACGCGUGCUCCGUUGAAUGGAGUUUAUCAUG: the “polymerase ribozyme fitness (log ratio)” value was at most -4.2.

Regarding GGAUCUUCUCGAUGUAACAAAAAAGACAAAUCUGUCACAAAGCUUGAGAGCAUAUUCGGAUGCAGACGCGGCAGCCUUCGGUGGCGCGAUAGCGUCAACGUUCUCAACUAUGACACGCAAAACGCGUACUCCGUUGAAUGCAGUUUAUCAUG, the “polymerase ribozyme fitness (log ratio)” value is at most -4.2. Regarding GGAUCUUCUCGAUGUAACAAAAAAGACAAAUCUGCCACAAAGCUUGAGAGCAUCUUCGGAUGCAGAGGCGGCAGCUUUCGGUGGCGCUAUAGGGCAAACGUUCUCAACUAUAACACGCAAAACACGUGCUCCAUUGAAUGGAGUUUAUCAUG, the “polymerase ribozyme fitness (log ratio)” value is at most -4.2.

As for GGAUCUUCUCGAUGCAACAAAAAAGACAAAUCUGCCACAAAGGUUGAGAGCAUCUUCGGAUGCAGAGGCGGCAGCCUUCGGUGGCGCGAUAGUGCCAACGUUCUCCAAUAUGACACGCAAAACGCAUGCUCCGUUGGAUGGAGUUUAUUAUG, the “polymerase ribozyme fitness (log ratio)” value was at most -4.2. The value for GGAUCUUCUCGAUGUAACAAAAAAGACAAAUCUGCCACAAAGCUUGAGAGCAUCUUCGGAUGCAGAGGCGGCAGCCUUCGGUGGCGCGAUAGCGCCAACGUUCUCAACUAUGACACGCAAAACGCGUGCUCCUUUGAAUGGAGUUUAUCAUG was at most -4.2. GGAUCUUCUCGAUGUAACAAAAAAGACAAAUCUGCCACAAAGCUUGAGAGCAUCUUCGGAUGCAGAGGCGGCAGCCUUCGGUGGCGAGAUAGCGCCAACGUUCUCAACUAUGACACGCAAAACGCGUGCUCCGUUGAAUGGAGUUUAUCAUG: the “polymerase ribozyme fitness (log ratio)” value was at most -4.2. Take GGAUCUUCUCGAUGUAACAAAAAAGACAAAUCUGCCACAAAGCUUGAGAGCAUCUUCGGAUGCAGAGGCGGCAGCCUUCGGUGGCGCGAUAGGGCCAACGUUCUCACCUAUGACACGCAAAACGCGUGCUCCGUUGAAUGGAGUUUAUCUUG: the “polymerase ribozyme fitness (log ratio)” value was at most -4.2. On to GGAUCUUCUCGAUGUAACAAAAAAGACAAAACUGCCACAAAGCUUGAGAGCAUCUUCGGAUGCAGAGGCGGCAGCCUUCGGUGGCGCGAUAGCGCCAACGUUCUCAACUAUGACACGCAAAACGCGUGCUCCGUUAAAUGGAGUUUAUCAUG, for which the “polymerase ribozyme fitness (log ratio)” value is -2.23. With GGAUCUUCUCGAUGUAACAAAAAAGACAAAUCUGCCACAAAGCUUGAGAGCAUCUUCGGAUGCAGAGGCGGCAGCCUUCGGUGGCGCGAUAGCGUCAACGUUCUCAACUAUGACACGCAAAACGCGUGCUCCGUUGAAUGGAGUUUAUCAUG, the “polymerase ribozyme fitness (log ratio)” value was -1.57. Turning to GGAUCUUCUCGAUGUAACAAAAAAGACAAAUCUGCCACAAAGCUUGAGAGCAUUUUCGGAUGCAGAGGCGGCAGCGUUCGGCGGCACGAUAGCGCCAACGUUCUCACCUAUGACACGCAAAACGCGUGCUCCGUUUAAUGGAGUUUAUCAUG, the “polymerase ribozyme fitness (log ratio)” value was at most -4.2. With GGAUCUUCUCGAUGUAACAAAAAAGACAAAUCUGCCACAAAGCUAGAGCGCAUCUUCGGAUGCAGAGGCGGCAGCCUUCGGUGGCGCGAUAGCGCUAACGUUCUCAACUAUGACACGCAAAACGCGUGCUCCGUUGAAUGGAGUUUAUCGUG, the “polymerase ribozyme fitness (log ratio)” value was at most -4.2. Regarding GGAUCUUCUCGAUGUAACAAAAAAGACAAAUCUGCCACAAAGCUUGAGAGCAUCUUCGGAUGCAGAGGCGGCAGCCUUCGGUGGCGCGAUAGGGCCAACGUUCUCAACUAUGACACGCAAAACGCGUGCUUCGUUGAAUGGAGUUUAGCAUG, the “polymerase ribozyme fitness (log ratio)” value was at most -4.2. With GGAUCUUCUCGAUGUAACAAAAAAGACAAAUCUGCCACAAAGAUUGAGAGCAUCUUCGGAUGCAGAGGCGGCAGCCUUCGGUGGCGCUAUAGCGCCAACGUUCUCAACUUUCACACGCAAAACGCGGGCUCCGUUGAAUGGAGUUUAUCAUG, the “polymerase ribozyme fitness (log ratio)” value was at most -4.2. As for GGAUCUUCUCGAUGUAACAAAAAAGACAAAUCUGCCACAAACCUUGAGAGCAUCUUCGGAUGCAGAGGCGGCAGCCUUCGGUAGCGCGAUAGCGCCAACGUUCUCAACUAUGACACGCAAAACGCGUGCUCCGUUGAAUGGAGCUUACCAUG, the “polymerase ribozyme fitness (log ratio)” value was at most -4.2. For the variant GGAUCUUCUCGAUGUAACAAAAAAGACAAAUCUGCCACAAAGCUUGAGAGCAUCUUCGGAUGCAGAGGCGGCAGCCUUCGGUGGCGCCAUAGCGCCAACGUUCUCAACUAUGACACGCAAAACGCGUGCUCCGUUGUAUGGAGUUUAUCAUG, the “polymerase ribozyme fitness (log ratio)” value is at most -4.2. For the variant GGAUCUUCUCGAUGUAACAAAAAAGACAAAUCUGCCACAAAGCUUGAGAGCAUCUUCGGAUGCAGAGGCGGCAGCCUUCGGUGGCGAGAUAGCGCCAACGUUCUCAUCUAUGACACGCAAAACGCGUGCUCCGUUGAAUGGAGUUUAUCAUG, the “polymerase ribozyme fitness (log ratio)” value was at most -4.2.
